Binding signal data for nine molecules are collected here from publication PMC9911399, “Two distinct binding modes provide the RNA-binding protein RbFox with extraordinary sequence specificity”.

Numbering of substitutions follows the chain as printed; changes in the protein carry UniProt numbers. Some of the results follow.

The chains are these.
T1: RBFOX1 RRM (Homo sapiens, UniProt Q9NWB1 109-208)
T1 sequence: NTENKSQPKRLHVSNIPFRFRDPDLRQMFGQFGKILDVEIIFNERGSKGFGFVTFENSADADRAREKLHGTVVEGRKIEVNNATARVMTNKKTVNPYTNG

B1: UGACCGA (DNA:RNA)
RNA: GGGAGACCGGAAUUCAGAUUGUCCUGACCGAUUAAAUCCCGUCGUAGCCACCA
DNA 1: CAATCTGAATTCCGGTCTCCC
DNA 2: TGGTGGCTACGACGGGATT
B2: CUUGCCU (DNA:RNA)
RNA: B1 RNA with U25C, G26U, A27U, C28G, G30C, A31U
DNA 1: CAATCTGAATTCCGGTCTCCC
DNA 2: TGGTGGCTACGACGGGATT
B3: CUCCGUA (DNA:RNA)
RNA: B1 RNA with U25C, G26U, A27C, C29G, G30U
DNA 1: CAATCTGAATTCCGGTCTCCC
DNA 2: TGGTGGCTACGACGGGATT
B4: UAUUGCA (DNA:RNA)
RNA: B1 RNA with G26A, A27U, C28U, C29G, G30C
DNA 1: CAATCTGAATTCCGGTCTCCC
DNA 2: TGGTGGCTACGACGGGATT
B5: UACUGGA (DNA:RNA)
RNA: B1 RNA with G26A, A27C, C28U, C29G
DNA 1: CAATCTGAATTCCGGTCTCCC
DNA 2: TGGTGGCTACGACGGGATT
B6: CAGAAUA (DNA:RNA)
RNA: B1 RNA with U25C, G26A, A27G, C28A, C29A, G30U
DNA 1: CAATCTGAATTCCGGTCTCCC
DNA 2: TGGTGGCTACGACGGGATT
B7: CUCAAGC (DNA:RNA)
RNA: B1 RNA with U25C, G26U, A27C, C28A, C29A, A31C
DNA 1: CAATCTGAATTCCGGTCTCCC
DNA 2: TGGTGGCTACGACGGGATT
B8: GUCGGAC (DNA:RNA)
RNA: GGGAGACCGGAAUUCAGAUUGUCCGUCGGACUUAAAUCCCGUCGUAGCCACCA
DNA 1: CAATCTGAATTCCGGTCTCCC
DNA 2: TGGTGGCTACGACGGGATT
B9: AGAACGA (DNA:RNA)
RNA: B1 RNA with U25A, C28A
DNA 1: CAATCTGAATTCCGGTCTCCC
DNA 2: TGGTGGCTACGACGGGATT

For the test, the target named is T1, RBFOX1 RRM. Kind of test: EMSA; HiTS-Eq, 1 nM pool, 10 min; buffer printed only for the single-RNA assays: 10 mM Tris pH 7.5, 150 mM NaCl, 3.4 mM EDTA, 0.001% NP-40, 30 C. The note with it: tags: His6 N-terminal (pET28a); label: 5' 32P. The method, boiled down:
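Purified wild-type or mutant RbFox RRM at increasing concentrations was equilibrated with 1 nM of 5′-radiolabelled RNA carrying 7 randomized nucleotides for 10 min in 50 µL. Unbound RNA was separated by 8% native PAGE and sequenced. Relative association constants came from read-count changes of each RNA species compared with the control reaction, normalised to the cognate motif.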
A general note: A gel shift assay detects complexes by their altered migration in electrophoresis.
On to B1, for which the binding signal was 0.0143 KA relative to UGCAUGU.

As for B2, the binding signal was 0.0163 KA relative to UGCAUGU.

For the molecule B3, the binding signal is 0.00175 KA relative to UGCAUGU.

Take B4: the binding signal is 0.0255 KA relative to UGCAUGU.

For the molecule B5, the binding signal was 0.00358 KA relative to UGCAUGU.

B6: the binding signal was 0.00322 KA relative to UGCAUGU.

B7: the binding signal is 0.0049 KA relative to UGCAUGU.

With B8, the binding signal was 0.00642 KA relative to UGCAUGU.

With B9, the binding signal was 0.00985 KA relative to UGCAUGU.
